Results: the supplement of paper PMC10886265
MIC by broth microdilution (CLSI, 0.25-128 µg/mL, 18 h, 37 °C) of Gram-negative wastewater isolates picked on carbapenem-selective plates; higher = less susceptible. No active / inactive call. Isolates were selected for resistance.

Experiments:
Assay in all cases: Broth microdilution (CLSI), cation-adjusted Mueller-Hinton broth, two-fold steps from 0.25 to 128 µg/mL, 18 h at 37 °C.
Imipenem = compound: C[C@@H](O)[C@H]1C(=O)N2C(C(=O)O)=C(SCCNC=N)C[C@H]12 [Imipenem]
Meropenem = compound: C[C@@H](O)[C@H]1C(=O)N2C(C(=O)O)=C(S[C@@H]3CN[C@H](C(=O)N(C)C)C3)[C@H](C)[C@H]12 [Meropenem]
Ertapenem = compound: C[C@@H](O)[C@H]1C(=O)N2C(C(=O)O)=C(S[C@@H]3CN[C@H](C(=O)Nc4cccc(C(=O)O)c4)C3)[C@H](C)[C@H]12 [Ertapenem]

Test System | MIC (Imipenem) | MIC (Meropenem) | MIC (Ertapenem)
Klebsiella pneumoniae isolate secondary sludge #193 (carbapenemase genes (PCR): KPC) | 32 µg/mL | 64 µg/mL | 8 µg/mL
Klebsiella pneumoniae isolate secondary sludge #215 (carbapenemase genes (PCR): KPC) | 32 µg/mL | 64 µg/mL | 8 µg/mL
Klebsiella pneumoniae isolate sewage #2 (carbapenemase genes (PCR): OXA-48) | 8 µg/mL | 32 µg/mL | 4 µg/mL
Klebsiella pneumoniae isolate sewage #5 (carbapenemase genes (PCR): OXA-48) | 8 µg/mL | 32 µg/mL | 4 µg/mL
Klebsiella pneumoniae isolate sewage #8 (carbapenemase genes (PCR): OXA-48) | 16 µg/mL | 32 µg/mL | 4 µg/mL
Klebsiella pneumoniae isolate sewage #9 (carbapenemase genes (PCR): KPC) | 32 µg/mL | > 128 µg/mL | 8 µg/mL
Klebsiella pneumoniae isolate sewage #30 (carbapenemase genes (PCR): KPC+GES) | 64 µg/mL | 128 µg/mL | 64 µg/mL
Klebsiella pneumoniae isolate sewage #61 (carbapenemase genes (PCR): OXA-48) | 128 µg/mL | 128 µg/mL | 64 µg/mL
Klebsiella pneumoniae isolate sewage #64 (carbapenemase genes (PCR): OXA-48) | 128 µg/mL | 128 µg/mL | 64 µg/mL
Klebsiella pneumoniae isolate sewage #129 (carbapenemase genes (PCR): KPC) | 64 µg/mL | > 128 µg/mL | 64 µg/mL
Klebsiella pneumoniae isolate sewage #135 (carbapenemase genes (PCR): KPC) | 32 µg/mL | 32 µg/mL | 8 µg/mL
Klebsiella pneumoniae isolate sewage #136 (carbapenemase genes (PCR): KPC) | 32 µg/mL | 64 µg/mL | 16 µg/mL
Klebsiella pneumoniae isolate sewage #196 (carbapenemase genes (PCR): KPC) | 16 µg/mL | 64 µg/mL | 64 µg/mL
Klebsiella pneumoniae isolate sewage #197 (carbapenemase genes (PCR): KPC) | 16 µg/mL | 32 µg/mL | 16 µg/mL
Klebsiella pneumoniae isolate sewage #204 (carbapenemase genes (PCR): KPC+GES) | 16 µg/mL | 32 µg/mL | 32 µg/mL
Klebsiella pneumoniae isolate sewage #205 (carbapenemase genes (PCR): KPC+GES) | 16 µg/mL | 16 µg/mL | 32 µg/mL
Klebsiella pneumoniae isolate sewage #212 (carbapenemase genes (PCR): KPC+GES) | 8 µg/mL | 32 µg/mL | 64 µg/mL
Klebsiella pneumoniae isolate sewage #215 (carbapenemase genes (PCR): GES) | 4 µg/mL | 16 µg/mL | 8 µg/mL
Klebsiella pneumoniae isolate sewage #216 (carbapenemase genes (PCR): KPC) | 8 µg/mL | 32 µg/mL | 16 µg/mL
Klebsiella pneumoniae isolate sewage #220 (carbapenemase genes (PCR): KPC+GES) | 32 µg/mL | 32 µg/mL | 16 µg/mL
Klebsiella pneumoniae isolate sewage #224 (carbapenemase genes (PCR): KPC) | 16 µg/mL | 64 µg/mL | 8 µg/mL
Klebsiella variicola isolate primary sludge #2 (carbapenemase genes (PCR): OXA-48) | 64 µg/mL | 32 µg/mL | 32 µg/mL
Klebsiella variicola isolate primary sludge #44 (carbapenemase genes (PCR): GES) | 64 µg/mL | 32 µg/mL | 16 µg/mL
Klebsiella variicola isolate primary sludge #60 (carbapenemase genes (PCR): GES) | 32 µg/mL | 64 µg/mL | 32 µg/mL
Klebsiella variicola isolate primary sludge #73 (carbapenemase genes (PCR): GES) | 64 µg/mL | 64 µg/mL | 16 µg/mL

Test System | MIC (Imipenem) | MIC (Meropenem) | MIC (Ertapenem)
Klebsiella variicola isolate primary sludge #79 (carbapenemase genes (PCR): GES) | 64 µg/mL | 64 µg/mL | 16 µg/mL
Klebsiella variicola isolate primary sludge #86 (carbapenemase genes (PCR): GES) | 64 µg/mL | 64 µg/mL | 32 µg/mL
Klebsiella variicola isolate primary sludge #88 (carbapenemase genes (PCR): GES) | 32 µg/mL | 64 µg/mL | 32 µg/mL
Klebsiella variicola isolate primary sludge #92 (carbapenemase genes (PCR): GES) | 32 µg/mL | 32 µg/mL | 32 µg/mL
Klebsiella variicola isolate primary sludge #95 (carbapenemase genes (PCR): GES) | 32 µg/mL | 64 µg/mL | 32 µg/mL
Klebsiella variicola isolate primary sludge #97 (carbapenemase genes (PCR): GES) | 32 µg/mL | 64 µg/mL | 32 µg/mL
Klebsiella variicola isolate primary sludge #180 (carbapenemase genes (PCR): KPC) | 64 µg/mL | 64 µg/mL | 16 µg/mL
Klebsiella variicola isolate primary sludge #190 (carbapenemase genes (PCR): KPC) | 32 µg/mL | 32 µg/mL | 8 µg/mL
Klebsiella variicola isolate primary sludge #259 (carbapenemase genes (PCR): KPC) | 8 µg/mL | 32 µg/mL | 4 µg/mL
Klebsiella variicola isolate secondary sludge #22 (carbapenemase genes (PCR): KPC) | 64 µg/mL | 128 µg/mL | 64 µg/mL
Klebsiella variicola isolate secondary sludge #78 (carbapenemase genes (PCR): KPC+GES) | 32 µg/mL | 64 µg/mL | 16 µg/mL
Klebsiella variicola isolate secondary sludge #175 (carbapenemase genes (PCR): KPC+GES) | 32 µg/mL | 64 µg/mL | 8 µg/mL
Klebsiella variicola isolate secondary sludge #214 (carbapenemase genes (PCR): GES) | 16 µg/mL | 32 µg/mL | 4 µg/mL
Klebsiella variicola isolate secondary sludge #216 (carbapenemase genes (PCR): GES) | 16 µg/mL | 32 µg/mL | 4 µg/mL
Klebsiella variicola isolate secondary sludge #217 (carbapenemase genes (PCR): GES) | 16 µg/mL | 32 µg/mL | 4 µg/mL
Klebsiella variicola isolate sewage #4 (carbapenemase genes (PCR): KPC) | 8 µg/mL | 32 µg/mL | 4 µg/mL
Klebsiella variicola isolate sewage #41 (carbapenemase genes (PCR): KPC) | 32 µg/mL | 32 µg/mL | 32 µg/mL
Klebsiella variicola isolate sewage #95 (carbapenemase genes (PCR): GES) | 64 µg/mL | 32 µg/mL | 16 µg/mL
Klebsiella variicola isolate sewage #100 (carbapenemase genes (PCR): OXA-48) | 64 µg/mL | 32 µg/mL | 16 µg/mL
Klebsiella variicola isolate sewage #229 (carbapenemase genes (PCR): KPC+GES) | 8 µg/mL | 32 µg/mL | 4 µg/mL
Kluyvera ascorbata isolate primary sludge #45 (carbapenemase genes (PCR): KPC) | 128 µg/mL | 128 µg/mL | 64 µg/mL
Kluyvera ascorbata isolate secondary sludge #55 (carbapenemase genes (PCR): KPC) | 128 µg/mL | > 128 µg/mL | 64 µg/mL
Kluyvera ascorbata isolate sewage #10 (carbapenemase genes (PCR): KPC) | 32 µg/mL | > 128 µg/mL | 8 µg/mL
Kluyvera ascorbata isolate sewage #104 (carbapenemase genes (PCR): KPC) | 128 µg/mL | 64 µg/mL | 32 µg/mL
Kluyvera ascorbata isolate sewage #107 (carbapenemase genes (PCR): KPC) | 128 µg/mL | > 128 µg/mL | 64 µg/mL
